Among all 220,000 compounds or so, about 16,000 (7.3%) were called active. Inconclusive results, whose numbers are uncertain, are shown with a selection of clear calls. Calls follow the shape of the dose curve; as a rule, active = well fitted inhibition curve with a large enough effect (not every such curve was filed as active); inconclusive = small, poorly fitted or top-dose-only effect, or another doubt; inactive = no such curve, though single readings can be large or run the other way. No potency is given beside an inconclusive call; the fits are too rough.
target: Aldehyde dehydrogenase 1A1 (Homo sapiens) (UniProt P00352); experiment: qHTS Assay for Inhibitors of Aldehyde Dehydrogenase 1 (ALDH1A1); settings: Purified ALDH1A1, NADH fluorescence, propionaldehyde substrate; series mostly up to 75.3 µM; activity, negative = inhibition: at the top concentration;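 as to activity, negative = inhibition: plate controls were no enzyme wells and a reference inhibitor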
Potency is read from the fitted curve at half-maximal effect; tags tell the direction and shape of the fitted curve.

UniProt P00352, sequence (P00352 whole entry, looked up): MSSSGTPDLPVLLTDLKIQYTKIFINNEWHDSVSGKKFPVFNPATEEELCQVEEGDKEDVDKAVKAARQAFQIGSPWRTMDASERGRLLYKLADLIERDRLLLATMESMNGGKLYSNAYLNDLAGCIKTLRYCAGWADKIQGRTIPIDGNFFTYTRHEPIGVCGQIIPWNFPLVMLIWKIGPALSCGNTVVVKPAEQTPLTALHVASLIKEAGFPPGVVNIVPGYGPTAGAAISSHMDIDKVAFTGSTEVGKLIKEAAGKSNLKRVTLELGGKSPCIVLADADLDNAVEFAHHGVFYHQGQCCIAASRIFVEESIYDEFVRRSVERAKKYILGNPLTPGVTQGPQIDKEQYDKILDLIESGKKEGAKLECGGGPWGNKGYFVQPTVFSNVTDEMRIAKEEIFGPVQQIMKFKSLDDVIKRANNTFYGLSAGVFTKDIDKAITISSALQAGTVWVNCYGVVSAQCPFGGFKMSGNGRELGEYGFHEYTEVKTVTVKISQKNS

SMILES | activity, negative = inhibition | Potency
Cc1cc(S(=O)(=O)NC2CCCC2)ccc1F | inactive: -3.6% | –
COC(=O)c1c(-c2ccc(C)cc2)csc1NC(=O)C1CC=CCC1C(=O)O (stereo not drawn) | – | inconclusive [inhibitor, single point]
CNC(=S)Nc1ccc(OCc2ccccc2)cc1 | – | active: 31.6 µM
CCN1C(=O)CSc2ccc(C(=O)NCc3ccccc3OC)cc21 | – | active: 10 µM
Cc1ccc[n+](-c2[nH]c(=O)sc2/C=N/NC(=O)c2ccccc2[O-])c1 | inactive: -7.12% | –
CCN(CC)c1ccc(C2C3CCCCC3(O)CCN2C(=O)c2cccs2)cc1 (stereo not drawn) | – | inconclusive [inhibitor, single point]
COc1ccc(-c2csc(CCN3N=C(C)CC3=O)n2)cc1 | – | active: 2 µM
COC(=O)C(C)(C)ONC(=O)Nc1ccc(C)cc1 | inactive: 4.55% | –
CN(Cc1ccccc1)C(=O)COC(=O)C1CCN(S(=O)(=O)c2cccs2)CC1 | – | inconclusive [inhibitor, full curve]
CCOC(=O)c1sc(C)c2c(=O)n(Cc3ccc(Cl)cc3)c(C)nc12 | – | inconclusive [inhibitor, single point]
CC(=O)Nc1cnc2ccccc2n1 | inactive: -12% | –
CC(=O)c1cc2c(s1)-c1cc(F)ccc1OC2 | – | inconclusive [inhibitor, single point]
Cc1ccc(C2CCN(C(=S)Nc3cccc(Cl)c3)C2)cc1 (stereo not drawn) | inactive: -1.08% | –
O=C(CN1C(=O)c2ccccc2S1(=O)=O)Nc1ccc(S(=O)(=O)N2CCCCCC2)cc1 | – | inconclusive [inhibitor, single point]
COc1ccc(OCC(O)Cn2c(Nc3ccccc3)nc3c2c(=O)n(C)c(=O)n3C)cc1 (stereo not drawn) | inactive: 2.04% | –
COc1cccc(CN2CCSCC2)c1 | – | inconclusive [inhibitor, partial curve]
COc1cccc(/C=N/NC(=O)c2c(-c3ccccc3)noc2C)c1 | inactive: 5.26% | –
O=C1CS/C(=N/N=C/c2ccccc2)N1Cc1ccco1 | – | active: 11.2 µM
COc1cc(C2Nc3ccc4ncccc4c3C3=C2C(=O)CC(C)(C)C3)cc(OC)c1O (stereo not drawn) | – | active: 12.6 µM
O=Cc1cccn1Cc1ccc(Cl)cc1Cl | inactive: 14.3% | –
Cc1oc(C(N)=O)nc1-c1ccccc1 | – | inconclusive [inhibitor, single point]
Cc1ccc(NCN2C(=O)C3C4C=CC(C4)C3C2=O)cc1 (stereo not drawn) | inactive: 3.95% | –
COc1ccc(S(=O)(=O)NC2CC2)cc1-n1cnnn1 | – | inconclusive [inhibitor, partial curve]
Cc1c(NC(=O)OCCNC(=O)Nc2ccccc2)sc(=S)n1C | inactive: -9.42% | –
O=C(N/C(=C\c1cccnc1)C(=O)N1CCOCC1)c1cccc(Br)c1 | – | inconclusive [inhibitor, single point]
CC(C)[C@H](NC(=O)c1ccccc1Cl)C(=O)Nc1nc(-c2ccccn2)cs1 | – | inconclusive [inhibitor, full curve, poor fit]

SMILES | activity, negative = inhibition | Potency
COc1ccc(-c2cc(C(=O)Nc3c(Cl)cc(Cl)cc3Cl)c3ccccc3n2)cc1OC | – | inconclusive [inhibitor, single point]
COC(=O)CN1C(=O)S/C(=C/c2cc(C)n(C)c2C)C1=O | – | active: 14.1 µM
O=C(CN1CCN(c2ccccc2F)CC1)c1ccc2c(c1)OCO2 | – | active: 14.1 µM
CC(=O)N1N=C(c2ccncc2)OC12CCCCC2 | – | inconclusive [inhibitor, partial curve]
Cc1cc(=O)oc2c(O)c(O)ccc12 | – | inconclusive [inhibitor, single point]
COC(=O)c1cccc(COC(=O)c2ccc(N(C)C)cc2)c1 | – | inconclusive [inhibitor, single point]
CCOc1ccc(C(=O)CC(NCc2cccs2)C(=O)O)cc1 (stereo not drawn) | – | inconclusive [inhibitor, single point]
O=c1c2ccccc2nc(-c2ccccc2)n1Cc1ccc(Cl)cc1 | – | active: 6.31 µM
Cc1ccc(S(=O)(=O)N2CCN(CC(=O)NC3CCCc4ccccc43)CC2)c(C)c1 (stereo not drawn) | – | active: 12.6 µM
Cc1cc2oc(=O)cc(CN3CCN(Cc4ccccc4)CC3)c2cc1Cl | – | inconclusive [inhibitor, partial curve]
O=C(N/N=C/c1nn(-c2ccccc2)cc1-c1ccccc1)c1ccncc1 | inactive: -2.68% | –
CC(=O)Nc1nc(CCC(C)C)cc2c1c(=O)oc1ccccc12 | – | inconclusive [inhibitor, partial curve]
COc1ccc(NC(=S)Nc2ccc(Oc3ccccc3)cc2)cc1 | – | inconclusive [inhibitor, partial curve]
CC(=O)N1CCC2(CC1)C/C(=N\NC(=S)Nc1ccc(C)cc1)c1cc(O)ccc1O2 | – | inconclusive [inhibitor, single point]
CC(C)CC(=O)NC(NC(=S)Nc1sc2c(c1C#N)CCCC2)C(Cl)(Cl)Cl (stereo not drawn) | – | active: 3.55 µM
Cc1onc(-c2c(F)cccc2Cl)c1C(=O)NCCO | inactive: -1.81% | –
O=C(CCSCCC(=O)Nc1ccccc1F)Nc1ccccc1F | – | inconclusive [inhibitor, single point]
COc1cccc(CN2CCNC(=O)C2CC(=O)N(C)Cc2cnccn2)c1OC (stereo not drawn) | inactive: 6.21% | –
C=CCOc1ccc2c(c1)c(=O)cc(C(=O)O)n2CC | inactive: -8.7% | –
Cc1ccc(/C=C/C(=O)Nc2nn[nH]n2)o1 | – | inconclusive [inhibitor, single point]
CCN(CC)c1ccc(CNC23CN4CN(CN(C4)C2)C3)cc1 | – | active: 5.01 µM
CC1CC(C(F)(F)F)n2ncnc2N1 (stereo not drawn) | – | inconclusive [inhibitor, single point]
O=c1cc(C(F)F)oc2c1ccc1ccccc12 | – | inconclusive [inhibitor, full curve]
CC1(C)CC(=O)C=C(Nc2ccccn2)C1 | – | active: 8.91 µM
CC(C)c1ccc(C(=O)N2CCN(CCO)CC2)cc1 | – | inconclusive [inhibitor, single point]
O=C(N/N=C/c1cnc2ccccc2n1)c1cccc(F)c1 | – | inconclusive [inhibitor, single point]

SMILES | activity, negative = inhibition | Potency
Cc1cc(/C([O-])=C(/C(=S)Nc2ccc(F)cc2)[n+]2ccccc2)c(C)n1Cc1ccccc1Cl | – | inconclusive [inhibitor, partial curve, poor fit]
Cc1cc(C)n2c(SC/C(O)=C(\C#N)c3nc4ccccc4[nH]3)nnc2n1 | – | active: 17.8 µM
CCOC(=O)c1sc(NC(=O)CSc2nc(C)cc(-c3ccccc3)n2)c(C#N)c1C | – | active: 3.16 µM
CCC(=O)N(CCc1ccc(S(N)(=O)=O)cc1)C1CC(=O)N(c2ccc(OC)cc2)C1=O (stereo not drawn) | – | inconclusive [inhibitor, single point]
CCN(CC)CCOC(=O)c1ccc(NC(=O)c2ccc(Cl)c(S(=O)(=O)N3CCCCCC3)c2)cc1 | – | inconclusive [inhibitor, partial curve]
Fc1cccc(NCc2cn3ccccc3n2)c1 | – | inconclusive [inhibitor, single point]
Cn1nc(-c2ccc(Cl)cc2)c2cc(C(=O)NCCCN3CCCC3)sc21 | – | inconclusive [inhibitor, partial curve]
CC1C/C(=N\NC(=O)c2cccnc2)CC(C)(C)C1 (stereo not drawn) | – | inconclusive [inhibitor, single point]
FC(F)(F)c1cccc(NC(=S)NNC(=S)Nc2cccc(C(F)(F)F)c2)c1 | – | active: 1.58 µM
Cc1ccc(-n2cnc3cc(NCc4cccs4)ccc32)cc1 | – | inconclusive [inhibitor, partial curve]
Cc1ccc(C(=O)NCc2nnc(SCC(=O)Nc3sc4c(c3C#N)CCCC4)n2C)cc1 | – | active: 14.1 µM
CNc1nc(SCc2ccccc2Cl)nc2c1CCCC2 | inactive: -0.0803% | –
O=C(N1CCC(O)(c2cccnc2)CC1)C12CC3CC(CC(C3)C1)C2 | – | inconclusive [inhibitor, single point]
Cc1noc(C)c1C(=O)Nc1sc(C)c(-c2ccccc2)c1C#N | – | active: 10 µM
COc1cc(-c2nnc(SCC(=O)N3CCCC3)o2)cc(OC)c1OC | – | inconclusive [inhibitor, single point]
COc1ccc(NC(=O)NC2(C(=O)N3CCCCCC3)CCCCC2)cc1 | inactive: 2.24% | –
O=C(COC(=O)CCC(=O)c1cccs1)NCc1ccc(Cl)cc1 | – | inconclusive [inhibitor, single point]
CCCC(=O)Nc1cccc(-c2nc3ccccc3c(=O)o2)c1 | – | inconclusive [inhibitor, partial curve]
CCOC(=O)C1=C(CBr)NC(=O)NC1C (stereo not drawn) | – | active: 14.1 µM
COc1nc2c(C)cccc2cc1-c1noc(-c2ccco2)n1 | – | inconclusive [inhibitor, single point]
COC[C@H]1OC=C[C@@H](OC)[C@@H]1OC | inactive: -0.79% | –
O=C(COC(=O)CSc1cccc2cccc(Cl)c12)Nc1ncc(C(F)(F)F)cc1Cl | inactive: -1.72% | –
COc1ccc(C(=O)N2CCC3(CC2)CN(C(=O)Nc2cccc(C#N)c2)C3)cc1 | inactive: -15.3% | –
CCOC(=O)CN1C(=O)S/C(=C/c2ccc(N3CCCCC3)o2)C1=O | – | active: 25.1 µM
O=C1C2C3C=CC(CO)(O3)C2C(=O)N1c1ccc(-c2ccccc2)cc1 (stereo not drawn) | – | active: 0.126 µM
COCCN(CCOC)c1nc(C)nc2c1nc(-c1ccccc1)n2CCN1CCOCC1 | – | inconclusive [inhibitor, partial curve]
